# Values joined by “and” are separate entries in the source; they are usually repeats but may differ in a detail not shown here. Identical values can stand only once. Inconclusive means that the source gave no clear call. Such entries were picked first, then a sample of the others. For some of these results: A potency beside an inconclusive call is a rough fit, not a confirmed value. Active and inactive are the calls of the source. Unless noted, calls follow the shape of the dose curve; as a rule, active = well fitted curve in the direction sought with a large enough effect in the repeat runs; inconclusive = weak or mixed curves; inactive = no such curve, though single readings can be large; an effect the other way counts as inactive or inconclusive.
# Legend:
# [1] = target: Thyrotropin receptor (Homo sapiens) (UniProt P16473); experiment: qHTS assay to identify small molecule antagonists of the thyroid stimulating hormone receptor (TSHR) signaling pathway (AID 1259385; calls by dose curve; also: nearly all actives have a fitted effect of over 20% in size; as to activity change, negative = inhibition: % is scaled to controls: 0 for no effect and ±100 for the full control effect); settings: TSHR-HEK293 cAMP HTRF, TSH-stimulated antagonist mode; activity change, negative = inhibition: at 92.4 µM (top of the series) unless noted
# Method in brief: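 TSHR-HEK293 cells were plated and held 18 h at 37C/5% CO2, then given compound plus Ro20-1724 and stimulated with TSH at 1.5 ng/mL final. After 30 min at room temperature, cAMP was detected with cAMP-d2/anti-cAMP-cryptate (1 h) by fluorescence.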
# [2] = target: Progesterone receptor (Homo sapiens) (UniProt P06401); experiment: qHTS assay to identify small molecule antagonists of the progesterone receptor (PR) signaling pathway (AID 1346795; active = well fitted inhibition curve with a large enough effect in the signal ratio in the repeat runs, not every such curve was filed as active; inconclusive = weak or mixed curves; the % refers to the signal ratio; as to activity change, negative = inhibition: % is scaled to controls: 0 for no effect and ±100 for the full control effect); settings: PR-UAS-bla HEK293T, beta-lactamase FRET ratio, 16 h; activity change, negative = inhibition: at 92.4 µM (top of the series) unless noted
# Method in brief: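 Fluorescence intensity measured 2 hr after adding beta-lactamase FRET substrate to PR-UAS-bla HEK293T cells that had been co-treated 16 hr with compound and 1 nM R5020 (final concentration) in 2% charcoal-stripped FBS.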
# [3] = qHTS assay to identify small molecule antagonists of the progesterone receptor (PR) signaling pathway - cell viability counter screen (AID 1346798); also: nearly all actives have a fitted effect of over 50% in size
# Method in brief: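 CellTiter-Glo luminescence; PR-UAS-bla HEK293T, 3,000 cells/well; compound + R5020, 16 hr, 37C/5% CO2; 30 min RT before read.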
# [4] = qHTS assay to identify small molecule agonists of the TGF-beta/Smad signaling pathway (AID 1346859; active = well fitted activation curve with a large enough effect in the signal ratio in the repeat runs, not every such curve was filed as active; inconclusive = weak or mixed curves; the % refers to the signal ratio); settings: SBE-bla HEK293T, TGF-beta/Smad beta-lactamase reporter, 5 h; activation: at 76.8 µM (top of the series)
# Method in brief: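 After overnight seeding, SBE-bla HEK 293T cells are dosed with compounds in DMSO and kept 5 hr at 37 C, 5% CO2. LiveBLAzer-type FRET substrate is then applied for 2 hr at room temperature.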
# [5] = qHTS assay to identify small molecule antagonists of the TGF-beta/Smad signaling pathway (AID 1346924; active = well fitted inhibition curve with a large enough effect in the signal ratio in the repeat runs, not every such curve was filed as active; inconclusive = weak or mixed curves; the % refers to the signal ratio); settings: SBE-bla HEK293T, TGF-beta/Smad reporter, beta-lactamase ratio; activity, negative = inhibition: at 76.8 µM (top of the series) unless noted
# Method in brief: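 Read-out was FRET-substrate fluorescence (405 nm excitation; 460 and 530 nm emission) after 2 h at room temperature. Before that, cells carrying a Smad-binding-element beta-lactamase reporter in HEK 293T had been stimulated 5 h at 37 C with TGF-beta1 (0.25 ng/mL addition solution) in the presence of test compound.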
# [6] = qHTS assay to identify small molecule agonists of the estrogen receptor alpha (ER-alpha) signaling pathway in the presence of an antagonist - cell viability counter screen (AID 1259386);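 also: cells exposed to compounds for 22 h at 37 °C before the viability read; nearly all actives have a fitted effect of over 30% in size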
# Method in brief: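 Read-out: CellTiter-Fluor fluorescence after 1hr reagent incubation, measured in the same wells as the luciferase readout. VM7Luc4E2 cells were exposed to 15 compound concentrations with 10.0nM ICI-182,780 for 22hr at 37C.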
# [7] = qHTS assay to identify small molecule agonists of the progesterone receptor (PR) signaling pathway - cell viability counter screen (AID 1346799; calls by dose curve; also: nearly all actives have a fitted effect of over 45% in size)
# Method in brief: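 In parallel with the beta-lactamase readout, cytotoxicity toward PR-UAS-bla HEK293T cells was measured by CellTiter-Glo luminescence following 16 hr compound incubation in 2% charcoal-stripped FBS medium.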
# [8] = Human pregnane X receptor (PXR) small molecule agonists, qHTS cell viability counter screen (AID 1346977); also: nearly all actives have a fitted effect of over 50% in size
# Method in brief: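 Viability counter screen: CellTiter-Fluor signal in PXR-Luc HepG2 cells, 24hr compound exposure, 37C, 5% CO2.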
# [9] = Caspase-3/7 induction in CHO-K1 cells by small molecules, qHTS cell viability counter screen (AID 1346979); also: nearly all actives have a fitted effect of over 35% in size
# Method in brief: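 Viability readout by fluorescence (CellTiter-Fluor) on wild-type CHO-K1 cells exposed for 16hr at 37C and 5% CO2 to compounds delivered in DMSO; reagent incubated 1hr before reading.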
# [10] = target: Progesterone receptor (Homo sapiens) (UniProt P06401); experiment: qHTS assay to identify small molecule agonists of the progesterone receptor (PR) signaling pathway (AID 1346784; calls by dose curve; also: nearly all actives have a fitted effect of over 30% in size; as to activation: % is scaled to controls: 0 for no effect and ±100 for the full control effect); settings: PR-UAS-bla HEK293T, beta-lactamase FRET ratio, 16 h; activation: at 92.4 µM (top of the series) unless noted
# Method in brief: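 Fluorescence from LiveBLAzer B/G FRET substrate cleavage (2 hr, RT) reported PR activation in PR-UAS-bla HEK 293T cells treated 16 hr at 37C/5% CO2 with compounds; medium contained 2% charcoal-stripped FBS.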
# [11] = qHTS assay to identify small molecule antagonists of the TGF-beta/Smad signaling pathway - cell viability counter screen (AID 1346824); also: nearly all actives have a fitted effect of over 50% in size
# Method in brief: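 SBE-bla HEK 293T cells were plated overnight at 37 C, then given compounds in DMSO plus TGF-beta1 (added as 0.25 ng/mL solution) for 5 hr. After the bla read, CellTiter-Glo was added to the same wells and luminescence read after 30 min at room temperature.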
# [12] = Caspase-3/7 induction in HepG2 cells by small molecules, qHTS assay (AID 1346978); also: nearly all actives have a fitted effect of over 15% in size
# Method in brief: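 Wild-type HepG2 cells (2,000/well) were settled 5 h at 37 C, 5% CO2, then exposed to compounds in DMSO for 17 h. Caspase-3/7 activity was read by luminescence 30 min after adding Caspase-Glo 3/7 reagent at room temperature.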
# [13] = qHTS assay to identify small molecule agonists of the TGF-beta/Smad signaling pathway - cell viability counter screen (AID 1346829); also: nearly all actives have a fitted effect of over 45% in size
# Method in brief: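 Cytotoxicity counter screen: CellTiter-Glo luminescence (30 min, room temperature) measured in the SBE-bla HEK 293T reporter wells after 5 hr compound treatment at 37 C and the 2 hr substrate step.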
# [14] = Caspase-3/7 induction in CHO-K1 cells by small molecules, qHTS assay (AID 1346980); also: nearly all actives have a fitted effect of over 15% in size
# Method in brief: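 Wild-type cells were seeded at 1,500 per well and settled 5 hr at 37 C, 5% CO2, then exposed to DMSO-dissolved compounds for 17 hr. Caspase-Glo 3/7 reagent was added, and luminescence was read after 30min at room temperature.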
# Potency is read from the fitted curve at half-maximal effect; tags tell the direction and shape of the fitted curve or compound fluorescence and quenching.
# UniProt P06401, sequence (P06401 whole entry, looked up): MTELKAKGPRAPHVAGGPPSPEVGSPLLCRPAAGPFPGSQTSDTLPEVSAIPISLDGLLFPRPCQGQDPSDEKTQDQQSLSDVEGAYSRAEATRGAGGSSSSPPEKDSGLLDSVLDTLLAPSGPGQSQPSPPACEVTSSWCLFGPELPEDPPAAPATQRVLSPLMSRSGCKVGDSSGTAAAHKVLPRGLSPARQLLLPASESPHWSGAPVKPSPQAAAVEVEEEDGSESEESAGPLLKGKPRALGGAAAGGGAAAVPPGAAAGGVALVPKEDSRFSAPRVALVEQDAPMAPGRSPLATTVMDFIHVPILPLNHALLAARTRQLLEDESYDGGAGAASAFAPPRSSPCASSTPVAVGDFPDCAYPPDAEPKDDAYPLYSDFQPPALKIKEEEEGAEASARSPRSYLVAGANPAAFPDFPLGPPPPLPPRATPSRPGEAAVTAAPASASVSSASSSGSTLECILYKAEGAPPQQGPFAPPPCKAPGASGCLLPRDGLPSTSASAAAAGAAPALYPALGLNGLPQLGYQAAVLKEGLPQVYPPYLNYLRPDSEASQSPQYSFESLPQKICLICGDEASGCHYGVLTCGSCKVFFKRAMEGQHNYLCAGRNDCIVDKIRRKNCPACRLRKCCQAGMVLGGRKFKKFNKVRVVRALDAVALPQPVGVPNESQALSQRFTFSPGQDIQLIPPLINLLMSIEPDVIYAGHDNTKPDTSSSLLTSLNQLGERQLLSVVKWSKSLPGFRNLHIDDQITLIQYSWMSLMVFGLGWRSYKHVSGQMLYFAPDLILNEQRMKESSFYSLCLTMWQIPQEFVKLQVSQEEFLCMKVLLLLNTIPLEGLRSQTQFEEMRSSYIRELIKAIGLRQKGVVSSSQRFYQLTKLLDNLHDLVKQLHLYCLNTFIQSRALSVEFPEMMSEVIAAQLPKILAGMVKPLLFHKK
# UniProt P16473, sequence (P16473 whole entry, looked up): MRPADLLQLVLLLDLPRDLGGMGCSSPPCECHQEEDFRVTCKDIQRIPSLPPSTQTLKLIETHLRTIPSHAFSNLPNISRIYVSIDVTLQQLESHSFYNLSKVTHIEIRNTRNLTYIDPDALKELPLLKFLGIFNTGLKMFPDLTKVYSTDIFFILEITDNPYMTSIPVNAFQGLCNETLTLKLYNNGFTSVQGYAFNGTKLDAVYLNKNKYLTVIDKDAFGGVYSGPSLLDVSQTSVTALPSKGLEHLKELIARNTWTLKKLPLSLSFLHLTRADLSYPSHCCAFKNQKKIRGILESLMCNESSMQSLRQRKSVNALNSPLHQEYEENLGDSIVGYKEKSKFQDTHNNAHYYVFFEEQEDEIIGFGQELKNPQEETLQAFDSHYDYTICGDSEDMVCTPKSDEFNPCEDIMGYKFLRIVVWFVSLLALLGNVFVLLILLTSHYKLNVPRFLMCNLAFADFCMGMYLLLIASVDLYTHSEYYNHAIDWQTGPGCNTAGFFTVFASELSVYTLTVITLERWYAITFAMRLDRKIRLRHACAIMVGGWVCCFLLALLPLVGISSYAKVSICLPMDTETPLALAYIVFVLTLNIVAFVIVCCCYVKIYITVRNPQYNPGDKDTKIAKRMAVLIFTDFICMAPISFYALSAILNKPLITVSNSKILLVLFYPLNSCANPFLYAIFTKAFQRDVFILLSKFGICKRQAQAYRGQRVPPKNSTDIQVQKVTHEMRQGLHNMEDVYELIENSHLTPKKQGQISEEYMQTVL
compound,measurement,setting,value
CCOC(=O)COc1cc(-c2nn(C)c(OC(F)F)c2Cl)c(F)cc1Cl,Potency,[1],"inconclusive: 61.1 µM [rising, partial curve, poor fit]"
same,Potency,[2],inactive
same,Potency,[3],"inconclusive: 27.3 µM [cytotoxic, single point]"
same,Potency,[4],"inconclusive: 43.6 µM [rising, partial curve]"
same,"activity, negative = inhibition",[5],inconclusive: -1.07%
CCN(CC)CCc1c[nH]c2ccccc12,Potency,[6],"inconclusive: 101 µM [cytotoxic, partial curve, poor fit]"
same,"activity change, negative = inhibition",[2],inconclusive: -38.3%
same,Potency,[3],active: 90.4 µM
same,Potency,[7],"inconclusive: 80.6 µM [cytotoxic, partial curve]"
same,"activity, negative = inhibition",[5],inconclusive: 1.48%
same,Potency,[8],"inconclusive: 114 µM [cytotoxic, single point]"
CCOP(=S)(OCC)SC(CCl)N1C(=O)c2ccccc2C1=O (configuration not stated),"activity change, negative = inhibition",[1],inconclusive: -6.2%
same,Potency,[2],active: 27.3 µM
same,Potency,[7],"inconclusive: 27.3 µM [rising, partial curve, poor fit]"
same,Potency,[9],"inconclusive: 68.6 µM [cytotoxic, single point]"
CCCCC(CC)COC(=O)c1c(Br)c(Br)c(Br)c(Br)c1C(=O)OCC(CC)CCCC (configuration not stated),Potency,[1],inactive
same,Potency,[10],inconclusive: 42.2 µM [activator]
same,Potency,[7],inactive
CC[C@H](C)[C@H]1O[C@]2(C=C[C@@H]1C)C[C@@H]1C[C@@H](C/C=C(\C)[C@@H](O[C@H]3C[C@H](OC)[C@@H](O[C@H]4C[C@H](OC)[C@@H](O)[C@H](C)O4)[C@H](C)O3)[C@@H](C)/C=C/C=C3\CO[C@@H]4[C@H](O)C(C)=C[C@@H](C(=O)O1)[C@]34O)O2,Potency,[6],inconclusive: 36.1 µM [cytotoxic]
same,Potency,[10],"inconclusive: 14.4 µM [cytotoxic, partial curve]"
same,Potency,[2],active: 16.1 µM
same,Potency,[3],inconclusive: 16.1 µM [cytotoxic]
same,Potency,[7],"inconclusive: 22.8 µM [cytotoxic, partial curve, poor fit]"
same,Potency,[11],inconclusive: 25.8 µM [cytotoxic]
same,Potency,[4],inconclusive: 32.5 µM
same,Potency,[5],"inconclusive: 28.9 µM [rising, partial curve]"
c1ccc2cc3c(cc2c1)-c1cccc2cccc-3c12,Potency,[6],"inconclusive: 21.4 µM [rising, partial curve]"
same,Potency,[10],"inconclusive: 3.39 µM [fluorescent, full curve]"
same,Potency,[2],"inconclusive: 4.79 µM [rising, full curve]"
same,Potency,[4],"inconclusive: 17.1 µM [fluorescent, partial curve]"
same,Potency,[8],inactive
same,Potency,[12],active: 7.59 µM
same,Potency,[9],"inconclusive: 2.14 µM [rising, full curve]"
CCOP(=O)(OCC)O/C(=C/Cl)c1ccc(Cl)cc1Cl,Potency,[1],"inconclusive: 54.5 µM [falling, partial curve]"
same,Potency,[2],active: 10.9 µM
same,Potency,[7],"inconclusive: 27.3 µM [rising, partial curve]"
same,Potency,[13],"inconclusive: 549 nM [cytotoxic, full curve, poor fit]"
same,Potency,[8],"inconclusive: 61.1 µM [cytotoxic, single point]"
same,Potency,[9],"inconclusive: 77 µM [cytotoxic, single point]"
CN1CCc2cc3c(cc2C1O)OCO3 (configuration not stated),Potency,[6],"inconclusive: 48.9 µM [rising, partial curve]"
same,activation,[10],inconclusive: 22.2%
same,Potency,[3],inactive
same,Potency,[7],inactive
same,Potency,[11],inactive
same,Potency,[4],"inconclusive: 39.1 µM [activator, partial curve]"
same,Potency,[5],inconclusive: 39.1 µM [fluorescent]
same,Potency,[8],"inconclusive: 34.6 µM [rising, partial curve]"
same,Potency,[9],"inconclusive: 34.6 µM [rising, partial curve]"
NC1CCC(CC2CCC(N)CC2)CC1 (configuration not stated),Potency,[6],"inconclusive: 30.1 µM [cytotoxic, partial curve]"
same,Potency,[2],inactive
same,Potency,[3],"inconclusive: 67.4 µM [cytotoxic, single point]"
same,Potency,[7],active: 26.8 µM
CC(C)c1ccc(CO)cc1,Potency,[1],"inconclusive: 0.0069 µM [rising, full curve, poor fit]"
same,Potency,[3],inactive
OC(c1ccc(Cl)cc1)(c1ccc(Cl)cc1)C(Cl)(Cl)Cl,Potency,[1],active: 68.6 µM
same,Potency,[2],inconclusive: 27.3 µM
same,Potency,[3],"inconclusive: 6.11 µM [cytotoxic, single point]"
same,Potency,[7],inactive
same,"activity, negative = inhibition",[5],inconclusive: -12.5%
same,Potency,[9],"inconclusive: 68.6 µM [cytotoxic, single point]"
same,Potency,[14],"inconclusive: 68.6 µM [activator, partial curve, poor fit]"
C(=NC1CCCCC1)=NC1CCCCC1,Potency,[6],"inconclusive: 19.3 µM [cytotoxic, full curve]"
same,Potency,[10],"inconclusive: 12.2 µM [falling, full curve, poor fit]"
same,Potency,[13],"active: 49.3 µM and inconclusive: 61.7 µM [cytotoxic, single point]"
same,"activity, negative = inhibition",[5],inconclusive: -9.72%
same,Potency,[8],"inconclusive: 61.5 µM [cytotoxic, single point] and inconclusive: 77 µM [cytotoxic, single point]"
same,Potency,[9],"active: 13.8 µM and inconclusive: 68.6 µM [cytotoxic, single point]"

# — PubChem BioAssay (Tox21)
